For some of these results: Part of at least one peptide drawing is inferred or uncertain, most often the ends. For some of these results: At least one compound was matched to its structure with a doubt left. Starred links: 1 amine or outer side, 2 acyl side, 3 side chain; linkers in the order of their positions; H or OH if unused. Non-standard residues stand in square brackets, D forms with d. Residues, ends and D or L forms follow the SMILES beside them. *: point of attachment. NH(CH2CH2O)5CH2CO = O=C(COCCOCCOCCOCCOCCN[*:1])[*:2]; Trp(7-Me) = Cc1cccc2c(C[C@H](N)C(=O)O)c[nH]c12; C20 diacid = O=C(O)CCCCCCCCCCCCCCCCCCC(=O)*; γGlu = O=C(O)[C@H](CCC(=O)[*:2])N[*:1]; Nle = CCCC[C@H](N)C(=O)O; β3hA = C[C@H](N)CC(=O)O
Tests used:
[1] = Food intake and body weight after subcutaneous administration in mice, 24 hours (Example A-2a); format: in vivo; settings: male C57BL/6J mice, peptide 500 nmol/kg (liraglutide 37 μg/kg), second dose 6 hours after the first, high fat diet
[2] = Food intake and body weight after subcutaneous administration in mice, 16 hours (Example A-2b); format: in vivo; settings: male C57BL/6J mice, single subcutaneous dose, peptide 500 nmol/kg, high fat diet
Description: Male C57BL/6J mice, approximately 10 weeks old (Jackson Laboratory), were group housed in a 12-h light cycle room (6:00 AM on, 6:00 PM off) upon arrival and acclimated to the facility for a minimum of 1 week prior to the study. Animals were provided standard rodent chow (PicoLab Rodent Diet, 5053) ad libitum. Animals were single caged for a minimum of 3 days prior to the study. During the period prior to the study day, mice were exposed to one pellet of high fat diet (Research Diets D12492i) to avoid any effects of novelty in the study. On three separate days during this run-in period, mice were given one dose of phosphate-buffered saline (PBS; 5 mL/kg) by subcutaneous injection to acclimate them to the procedure. For baseline measures, pre-weighed meals of standard rodent chow were provided to each animal following acclimation dosing at 3:30 PM, and body weight was recorded. The next morning at 9:30 AM, food intake and body weight measurements were recorded at 16 hours following the presentation of the pre-weighed meal. These measurements and the resulting body weight changes were then used to assign mice to balanced cohorts. […] Table 6 below describes the percent reduction in food intake and the percent body weight (BW) change with peptides as measured relative to the vehicle group.

human GRP receptors = target: T1, human GRP receptors (Homo sapiens, UniProt P30550); test: IP1 GRPR activity: HTRF IP1-Gq assay in U2OS cells stably expressing human GRP receptors; format: cell-based; settings: 90 minutes incubation, read-out: hIP1 GRPR EC50
T1 construct: host or cells: U2OS
Protocol: U2OS cells stably expressing human GRP receptors (DiscoverX, #93-0229C3) were cultured according to manufacturer's instructions. Cells were cultured to […], then collected using AccuTase (Innovative Cell Technologies, #AT104). Cells were washed and plated on a poly-D-lysine-coated 384-well plate (ThermoFisher, #A3890401) at a density of 2,500 cells/well in […] assay buffer (AssayComplete Cell Plating 5 Reagent, DiscoverX #93-0563R5), then incubated overnight at 37° C. and 5% C02. The following morning, a homogenous time-resolved fluorescence (HTRF) assay was performed in a 384-well plate format using the IP1-Gq assay kit (Cisbio, 62IPAPEB). Test compounds were made as a stock in DMSO, then serially diluted to generate 10-point dose response curves in IP1 stimulation buffer. Five microliters of the prepared compounds were then added to the plate containing cells and assay buffer in duplicate, and the cells were incubated at 37° C. and 5% CO2 for 90 minutes. Following compound incubation, […] of IP1 lysis/detection buffer (prepared according to manufacturer's instructions) was added to each well, and the plates were incubated at room temperature for 1 hour. HTRF signals were measured using a plate reader (ClarioSTAR), calculating the ratio between emissions at 665 nm and 620 nm (HTRF ratio). HTRF ratio for positive (Max, […]; SEQ ID NO. 45) and negative (Min, DMSO) controls were used to normalize HTRF data and generate values for % activity. EC50 and Max activity values were determined using a standard 4-parameter fit using GraphPad Prism.

T1 sequence (P30550 whole entry): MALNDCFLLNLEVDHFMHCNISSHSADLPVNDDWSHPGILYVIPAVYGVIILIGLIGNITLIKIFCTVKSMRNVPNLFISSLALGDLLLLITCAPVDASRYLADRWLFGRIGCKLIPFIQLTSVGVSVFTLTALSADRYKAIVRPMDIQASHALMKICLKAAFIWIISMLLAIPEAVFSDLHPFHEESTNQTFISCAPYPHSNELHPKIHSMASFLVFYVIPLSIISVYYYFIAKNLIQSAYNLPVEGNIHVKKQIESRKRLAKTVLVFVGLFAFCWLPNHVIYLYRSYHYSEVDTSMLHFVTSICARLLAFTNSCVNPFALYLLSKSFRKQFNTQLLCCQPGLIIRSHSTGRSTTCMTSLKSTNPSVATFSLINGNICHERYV

SMILES	% Body Weight Change at 24 hours (compared with vehicle) [1] [%]	% Reduction in Cumulative Food Intake over 24 hours (compared with vehicle) [1] [%]	% Body Weight Change at 16 hours (compared with vehicle) [2] [%]	% Reduction in Cumulative Food Intake over 16 hours (compared with vehicle) [2] [%]	EC50 (human GRP receptors) [nM]
CCCCCCCCCCCCCCCC(=O)N[C@@H](CCC(=O)NCCCC[C@H](NC(=O)[C@H](C)NC(=O)[C@H](C)NC(=O)[C@H](CCC(N)=O)NC(=O)CNC(=O)[C@H](CCC(=O)O)NC(=O)[C@H](CC(C)C)NC(=O)[C@H](Cc1ccc(O)cc1)NC(=O)[C@H](CO)NC(=O)[C@H](CO)NC(=O)[C@@H](NC(=O)[C@H](CC(=O)O)NC(=O)[C@H](CO)NC(=O)[C@@H](NC(=O)[C@H](Cc1ccccc1)NC(=O)[C@@H](NC(=O)CNC(=O)[C@H](CCC(=O)O)NC(=O)[C@H](C)NC(=O)[C@@H](N)Cc1cnc[nH]1)[C@@H](C)O)[C@@H](C)O)C(C)C)C(=O)N[C@@H](CCC(=O)O)C(=O)N[C@@H](Cc1ccccc1)C(=O)N[C@H](C(=O)N[C@@H](C)C(=O)N[C@@H](Cc1c[nH]c2ccccc12)C(=O)N[C@@H](CC(C)C)C(=O)N[C@H](C(=O)N[C@@H](CCCNC(=N)N)C(=O)NCC(=O)N[C@@H](CCCNC(=N)N)C(=O)NCC(=O)O)C(C)C)[C@@H](C)CC)C(=O)O [Liraglutide, liraglutide, reference compound]	−10.3	63	−4	43	
CCCCCCCCCCCCCCCC(=O)N[C@H](CCC(=O)NCCOCCOCC(=O)NCCOCCOCC(=O)NCC(=O)N[C@@H](CC(N)=O)C(=O)N[C@@H](Cc1c[nH]cn1)C(=O)N[C@@H](Cc1c[nH]c2ccccc12)C(=O)N[C@@H](C)C(=O)N[C@H](C(=O)NCC(=O)N[C@@H](Cc1c[nH]cn1)C(=O)N[C@@H](CC(C)C)C(=O)N[C@@H](CCSC)C(N)=O)C(C)C)C(=O)O [Peptide 8, Palmitoyl-D-γGlu-OEG-OEG-Gly-Asn-His-Trp-Ala-Val-Gly-His-Leu-Met-NH2]	−5.2	46			
CCCC[C@H](NC(=O)[C@H](CC(C)C)NC(=O)[C@H](Cc1c[nH]cn1)NC(=O)C[C@H](C)NC(=O)[C@@H](NC(=O)[C@H](C)NC(=O)[C@H](Cc1c[nH]c2c(C)cccc12)NC(=O)[C@H](Cc1c[nH]cn1)NC(=O)[C@H](CCC(=O)O)NC(=O)CNC(=O)COCCOCCOCCOCCOCCNC(=O)CC[C@H](NC(=O)CC[C@H](NC(=O)CCCCCCCCCCCCCCCCCCC(=O)O)C(=O)O)C(=O)O)C(C)C)C(N)=O [Peptide 275, Eicosanedioyl-γGlu-γGlu-PEG5-Gly-Glu-His-7MeTrp-Ala-Val-BABA-His-Leu-Nle-NH2] ({C20 diacid-γGlu-γGlu}-[NH(CH2CH2O)5CH2CO]GEH[Trp(7-Me)]AV[β3hA]HL[Nle]-NH2)					12.3

Reference: patent publication US20260176319A1, “PEPTIDE ANALOGS AND METHODS OF USING THE SAME” (Kallyope, Inc., priority 2024, published 2026)
